Several values for one entry are separate records, joined by “and”; a condition that tells them apart may be missing. Equal entries are not always repeated. In all, about 390,000 compounds went through this assay and about 17,000 (4.4%) were called active. This list was built around the results that the source calls inconclusive (neither active nor inactive); the mix of calls is not that of the screen. Calls come from the whole dose curve; as a rule, active = well fitted inhibition curve with a large enough effect; inconclusive = small, poorly fitted or top-dose-only effect; inactive = no such curve, though single readings can be large or run the other way. Where the call is inconclusive, the potency comes from a doubtful curve fit.
These compounds were tested against Lysine-specific demethylase 4A (Homo sapiens) (UniProt O75164) (assay: qHTS Assay for Inhibitors of JMJD2A-Tudor Domain). Details: AlphaScreen JMJD2A-Tudor / H3K4me3 peptide binding; activity change, negative = inhibition: at 114 µM (top of the series).
% is set by controls: 0 for no effect and ±100 for the full control effect; potency is the fitted concentration of half-maximal effect; tags give direction and shape of the fitted curve.
Note: nearly all actives have a fitted effect of over 50% in size.

Sequence of UniProt O75164 (O75164 whole entry, looked up, the tested form may be a part): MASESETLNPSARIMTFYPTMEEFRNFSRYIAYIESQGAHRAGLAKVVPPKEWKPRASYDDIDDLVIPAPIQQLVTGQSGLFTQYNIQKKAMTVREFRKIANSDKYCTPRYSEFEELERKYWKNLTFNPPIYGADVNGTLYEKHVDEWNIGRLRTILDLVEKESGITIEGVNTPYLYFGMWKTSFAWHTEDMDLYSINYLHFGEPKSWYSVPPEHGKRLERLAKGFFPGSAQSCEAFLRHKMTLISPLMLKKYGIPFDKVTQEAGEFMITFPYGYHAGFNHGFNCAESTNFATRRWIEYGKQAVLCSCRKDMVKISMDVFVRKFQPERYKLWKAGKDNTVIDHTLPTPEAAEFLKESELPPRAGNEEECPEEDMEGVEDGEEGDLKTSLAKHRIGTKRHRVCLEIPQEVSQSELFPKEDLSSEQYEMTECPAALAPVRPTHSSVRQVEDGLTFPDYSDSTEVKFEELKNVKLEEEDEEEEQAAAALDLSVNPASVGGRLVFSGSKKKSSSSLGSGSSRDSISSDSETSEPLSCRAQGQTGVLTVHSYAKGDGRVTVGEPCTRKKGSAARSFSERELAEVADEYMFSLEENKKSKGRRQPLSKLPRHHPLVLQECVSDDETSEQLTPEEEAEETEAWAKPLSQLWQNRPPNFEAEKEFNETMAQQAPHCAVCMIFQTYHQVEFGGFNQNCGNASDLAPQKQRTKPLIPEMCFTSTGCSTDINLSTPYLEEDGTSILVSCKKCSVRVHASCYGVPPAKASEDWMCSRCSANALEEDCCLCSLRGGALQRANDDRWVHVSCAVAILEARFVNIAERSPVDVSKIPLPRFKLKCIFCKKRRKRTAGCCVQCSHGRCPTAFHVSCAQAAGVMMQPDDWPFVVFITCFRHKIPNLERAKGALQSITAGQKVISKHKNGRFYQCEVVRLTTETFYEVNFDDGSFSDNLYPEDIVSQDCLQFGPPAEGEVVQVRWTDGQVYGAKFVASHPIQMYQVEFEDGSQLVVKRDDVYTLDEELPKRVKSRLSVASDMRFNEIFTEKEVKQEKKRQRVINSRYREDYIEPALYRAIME

Row | SMILES | activity change, negative = inhibition | Potency
1 | CCOC(=O)/C=C1\SCC(=O)N1CC(=O)c1ccc[nH]1 | inactive: -30.2% | 
2 | Cc1ccc(NC(=S)c2nc3ccccc3[nH]2)c(C)c1 |  | inconclusive: 28.2 µM [inhibitor, single point]
3 | Cc1[nH]c2ccc(CNS(=O)(=O)c3ccc(S(=O)(=O)N4CCOCC4)cc3)cc2c1C |  | inconclusive: 56.2 µM [inhibitor, partial curve]
4 | Cc1ccc(-c2nnn(CC(=O)Nc3nnc(C(C)C)s3)n2)cc1 |  | active: 56.2 µM
5 | O=C(Cn1ncc2c1-c1ccccc1OC2)N(Cc1ccco1)C1CCCCC1 |  | inconclusive: 56.2 µM [inhibitor, partial curve]
6 | S=c1[nH]nc(C2CCCCC2)o1 |  | active: 20 µM
7 | COc1ccc(C(=O)[C@H]2[C@H]3C(=O)N(c4ccccc4)C(=O)[C@H]3C3C=CC=NN32)cc1 (some centres not stated) |  | inconclusive: 1.26 µM [inhibitor, full curve]
8 | COc1cc2ccc(=O)oc2c(O)c1O |  | active: 6.31 µM
9 | Oc1ccccc1C1NN=C(c2ccccc2)S1 (configuration not stated) | inactive: -19.7% | 
10 | Cc1ccc(Cn2ncc3c(NCCN(C)C)ncnc32)cc1 | inactive: -22.5% | 
11 | COc1ccc(-c2nc(C)sc2CC(=O)O)cc1 |  | inconclusive: 7.08 µM [inhibitor, single point]
12 | COc1cc(OC)c2ccc(=O)oc2c1C(CC(=O)N1CCCC1)c1ccc2c(c1)OCO2 (configuration not stated) |  | inconclusive: 56.2 µM [inhibitor, partial curve] and inconclusive: 63.1 µM [inhibitor, partial curve, poor fit]
13 | COc1ccc(S(=O)(=O)Nc2ccc(Nc3ccccc3)cc2)cc1 |  | inconclusive: 39.8 µM [inhibitor, partial curve]
14 | Cc1cc(N2CCC(C(=O)Nc3ccc(Cl)cc3)CC2)n2nc(C)c(-c3ccc(Cl)cc3)c2n1 | inactive: -8.42% | 
15 | O=S(=O)(Nc1ccc(Cl)cc1)c1cccc2nsnc12 |  | inconclusive: 25.1 µM [inhibitor, full curve, poor fit]
16 | O=C(N/N=C/c1cc([N+](=O)[O-])ccc1O)c1ccc(COc2ccc3c(c2)CCC3)o1 |  | inconclusive: 44.7 µM [inhibitor, partial curve]
17 | CCNc1sc(C(=O)c2cccs2)c(N)c1-c1nc2ccccc2s1 |  | inconclusive: 79.4 µM [inhibitor, partial curve]
18 | O=C(Nc1nc2ccsc2c(=O)s1)c1ccc(F)cc1Cl |  | inconclusive: 25.1 µM [inhibitor, partial curve]
19 | COc1cc(OC)c2c(-c3ccccc3)cc(=O)oc2c1C(CC(=O)N1CCCC1)c1ccc(N(C)C)cc1 (configuration not stated) |  | active: 22.4 µM
20 | CC(=O)c1cccc(NC(=O)C2C3C=CC(C3=C(c3ccccc3)c3ccccc3)C2C(=O)O)c1 (configuration not stated) |  | inconclusive: 89.1 µM [inhibitor, partial curve]
21 | Cc1c(Cc2ccccc2)c(=O)oc2c(C)c(OCC(=O)NCC3CCC(C(=O)O)CC3)ccc12 (configuration not stated) |  | inconclusive: 89.1 µM [inhibitor, single point]
22 | CCN(CC)c1ccc(NS(=O)(=O)c2ccc(-c3coc(C)n3)cc2)c(C)c1 |  | active: 25.1 µM
23 | CC(C)Oc1ccc(Br)cc1/C=N\NC(N)=S |  | inconclusive: 50.1 µM [inhibitor, partial curve]
24 | CCCCOC(=O)C1CN(c2ccccc2)N=C1C(C)=O (configuration not stated) | inactive: 43.5% | 

Row | SMILES | activity change, negative = inhibition | Potency
25 | CCOC(=O)c1c(NC(=O)/C=C/c2ccc(OCC)cc2)sc2c1CCCC2 | inactive: 20.1% | 
26 | CCn1nc(C(=O)Nc2ccccc2N2CCCC2)c2ccccc2c1=O |  | active: 35.5 µM
27 | O=C(O)c1cccc(N/N=C/c2ccc(OC(F)(F)F)cc2)c1 |  | inconclusive: 39.8 µM [inhibitor, partial curve, poor fit]
28 | Cc1ccc(N=Nc2c(N)n(-c3ccccc3)[nH]c2=O)cc1 |  | inconclusive: 5.01 µM [inhibitor, full curve]
29 | Cc1ccc(Nc2c(-c3ccccn3)nc3ccc(C)cn23)cc1 |  | active: 44.7 µM
30 | COc1ccc(/C(O)=C2/C(=O)C(=O)N(CCCC(=O)O)C2c2ccc(OC)c(OC)c2)cc1 (configuration not stated) | inactive: -9.78% | 
31 | O=C(NC1CC1)c1cc(-c2ccco2)nc2ccccc12 |  | active: 8.91 µM
32 | Cc1ccc(S(=O)(=O)N(CC(=O)Nc2ccc3c(c2)OCO3)c2ccc(C)c(Cl)c2)cc1 |  | inconclusive: 39.8 µM [inhibitor, partial curve]
33 | CC(C)c1ccc(Nc2c(-c3ccco3)nc3ccccn23)cc1 |  | inconclusive: 56.2 µM [inhibitor, partial curve]
34 | C[C@H](N)c1nnc(SCC(=O)N(C)C)o1 |  | inconclusive: 44.7 µM [inhibitor, partial curve]
35 | C=CCn1c(=N)n(CC(O)COc2ccc(OC)cc2)c2ccccc21 (configuration not stated) |  | inconclusive: 89.1 µM [inhibitor, partial curve]
36 | CC(C)CCn1c(=S)[nH]c2ncccc2c1=O |  | inconclusive: 3.16 µM [inhibitor, full curve]
37 | CCn1c(NCc2cccs2)nc2ccccc21 | inactive: -14.7% | 
38 | Cc1ccc2oc(-c3ccc(Cl)c(NC(=O)c4ccc(OC(C)C)cc4)c3)nc2c1 | inactive: 8.3% | 
39 | O=C1c2ccccc2C(=O)c2c(Nc3ccc(CCO)cc3)ccc(O)c21 |  | active: 8.91 µM
40 | Cc1cc(C)c(C(=O)COc2cccnc2[N+](=O)[O-])cc1C |  | active: 56.2 µM
41 | Cc1cc(C)cc(-n2ccn(CC(=O)Nc3ccccc3F)c(=O)c2=O)c1 | inactive: -15.5% | 
42 | Cc1[nH]n(-c2ccccc2)c(=O)c1N=Nc1ccccc1C(=O)O |  | inconclusive: 50.1 µM [inhibitor, partial curve]
43 | CC(OC(=O)CCCN=C1NS(=O)(=O)c2ccccc21)C(=O)N(C)c1ccccc1 (configuration not stated) | inactive: 0% | 
44 | OC1CCCN(CC(O)COC(c2ccc(F)cc2)c2ccc(F)cc2)C1 (configuration not stated) |  | active: 10 µM
45 | COC(=O)c1ccccc1NC(=O)Cn1c(=O)n(CCCC(=O)NCc2ccccc2OC)c(=O)c2ccccc21 | inactive: 14% | 
46 | COc1ccc(S(=O)(=O)N2CCc3ccccc32)cc1C(=O)OCc1nnc(-c2ccccc2)o1 | inactive: 4.3% | 
47 | COc1ccc(C2C(C(C)=O)=C(O)C(=O)N2c2nc3ccccc3s2)cc1OC (configuration not stated) |  | inconclusive: 56.2 µM [inhibitor, partial curve]
